Data: patent publication US20060030524A1, “Treatment of systemic lupus erythematosus by down-regulating the autoimmune response to autoantigens” (Yeda Research and Development Co. Ltd., priority 1998, published 2006)

System: native, histone-free DNA of Crithidia luciliae
Test: Crithidia luciliae assay of sera of Ab1-immunized mice
Assay type: in vivo
Details: sera of C57BL/6 mice immunized to the Ab1
Procedure: Slides with Crithidia were purchased from Immco (Buffalo, N.Y.) and incubated with the test sera according to the manufacturer's protocol.
Test sera were then examined for binding to DNA using the Crithidia luciliae assay, which detects antibodies—to native, histone-free DNA exposed at the base of the Crithidia flagellum. Both BALB/c and C57BL/6 mice immunized to […] or PAb-248 were negative for anti-DNA antibodies in the Crithidia assay, as were C57BL/6 mice immunized to PAb-421. […] The finding of positive reactivity in the Crithidia assay correlates with the clinical disease seen in the BALB/c mice. The Crithidia luciliae assay is used clinically for its diagnostic specificity for lupus in humans (Aarden et al, 1975).

B1: PAb-421: monoclonal antibody (Ab1) against the C-terminal DNA-binding domain of murine p53; VH SEQ ID NO:2, VL SEQ ID NO:3 (antibody, listed as Mus sp., V domains shown)
VH: QVKLQESGAELVRSGASVKLSCTASGFNIKDYYMHWVKQRPEQGLEWIGWIDPENGDTEYAPKFQGKATMTADTSSNTAYLQLSSLASEDTAVYYCNFYGDALDYWGQGTTVTVSS
VL: DIQLTQSPLTLSVTIGQPASISCKSSQSLLDSDGKTYLNWLLQRPGQSPKRLIYLVSKLDSGVPDRFTGSGSGTDFTLKINRVEAEDLGVYYCWQGTHSPLTFGAGTKLK
modifications: BINDING (26)..(35) Complementary Determining Region; BINDING (24)..(39) Complementary Determining Region
- anti-DNA antibodies in the Crithidia assay: negative
